In publication PMC11320581 (ACS Infectious Diseases, 2024):
Values joined by “and” are separate entries in the source; they are usually repeats but may differ in a detail not shown here. Equal entries are not always repeated.

What was measured:
[1] = biological target: T1, N. gonorrhoeae gyrase (Neisseria gonorrhoeae, UniProt P22118+P48371); assay: biochemical; conditions: IC50, inhibition of gyrase-catalyzed DNA supercoiling
[2] = biological target: N. gonorrhoeae gyrase GyrA^S91F/D95G (Neisseria gonorrhoeae, UniProt P22118+P48371, D95G/S91F); assay: biochemical
[3] = biological target: T2, N. gonorrhoeae gyrase GyrA^D95G (Neisseria gonorrhoeae, UniProt P22118+P48371, D95G); assay: biochemical
T2 construct: made in house

[4] = biological target: N. gonorrhoeae gyrase GyrA^S91F (Neisseria gonorrhoeae, UniProt P22118+P48371, S91F); assay: biochemical
[5] = biological target: T1, N. gonorrhoeae gyrase
[6] = biological target: T1, N. gonorrhoeae gyrase; assay: biochemical

In the case of `C[C@@H]1CN2c3c(cc4c(N5C(=O)OC[C@@H]5C)noc4c3F)CC3(C(=O)NC(=O)NC3=O)[C@H]2[C@H](C)O1` [zoliflodacin, Zoliflodacin], the IC50 [1] is reported as 1.54 µM and ~1.5 µM, the IC50 [2] is reported as ~3.8 µM and the IC50 [3] is reported as ~4.4 µM. The IC50 [4] was ~3 µM, the “stability of gyrase-DNA-SPT complex relative to topoisomerase IV complex” value [5] was “≈ 10 times” and the EC50 [6] was ~16.2 µM. The “double-stranded DNA cleavage” value [6] was 32.9% and the “total (double-stranded + single-stranded) DNA cleavage” value [6] was 41.1%.
In the case of `CC1CN2c3c(cc4c(OCC5CCC(=O)N5)noc4c3F)CC3(C(=O)NC(=O)NC3=O)C2C(C)O1` (stereo not drawn) [H3D-005722], the “DNA cleavage profile with gyrase compared with zoliflodacin” value [6] is reported as “very similar to that of zoliflodacin”.
